This is one part of the list. No stated cut-off is given here; in the data, active = 3.2 or more and inactive = the rest. Only a few entries rise above the background.
Columns and labels:
Assay in all cases: enrichment score (SH2-bound / input frequency) (ratio); bacterial display of known human phosphotyrosine sites (pTyr-Var adds point mutants) read by sequencing; higher = stronger binding; tyrosines were phosphorylated by kinases first
Settings in all cases: peptide library: pTyr-Var
SHP2 C-SH2 domain E139D = biological target: SHP2 C-SH2 domain E139D
[1] = biological target: SHP2 C-SH2 domain wild-type
SHP2 N-SH2 domain L43F = biological target: SHP2 N-SH2 domain L43F
SHP2 N-SH2 domain T42A = biological target: SHP2 N-SH2 domain T42A
SHP2 N-SH2 domain T52S = biological target: SHP2 N-SH2 domain T52S
[2] = biological target: SHP2 N-SH2 domain wild-type

Measured: enrichment score
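Further: displayed peptides selected on beads carrying the immobilized SH2 domain, with library peptides lacking any tyrosine serving as negative controls.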

ESKKHYGFSLF [ANXA3_Y295_F291S_YF]
inactive: SHP2 C-SH2 domain E139D 1.03 | [1] 0.921 | SHP2 N-SH2 domain L43F 0.636 | SHP2 N-SH2 domain T42A 0.89 | SHP2 N-SH2 domain T52S 0.932 | [2] 0.772

EFKKHYGFSLF [ANXA3_Y295_YF]
inactive: SHP2 C-SH2 domain E139D 1.46 | [1] 1.08 | SHP2 N-SH2 domain L43F 1.06 | SHP2 N-SH2 domain T42A 0.991 | SHP2 N-SH2 domain T52S 1 | [2] 0.942

GEDEPYAEPFA [APBA1_Y183_S184A_YF]
inactive: SHP2 C-SH2 domain E139D 0.367 | [1] 0.444 | SHP2 N-SH2 domain L43F 0.36 | SHP2 N-SH2 domain T42A 0.326 | SHP2 N-SH2 domain T52S 0.448 | [2] 0.282

GEDEPYSEPFA [APBA1_Y183_YF]
inactive: SHP2 C-SH2 domain E139D 0.406 | [1] 0.361 | SHP2 N-SH2 domain L43F 0.433 | SHP2 N-SH2 domain T42A 0.302 | SHP2 N-SH2 domain T52S 0.365 | [2] 0.367

PFAEPYADFGG [APBA1_Y187_S184A_YF]
inactive: SHP2 C-SH2 domain E139D 0.624 | [1] 0.603 | SHP2 N-SH2 domain L43F 0.748 | SHP2 N-SH2 domain T42A 0.655 | SHP2 N-SH2 domain T52S 0.58 | [2] 0.823

PFSEPYADFGG [APBA1_Y187_YF]
inactive: SHP2 C-SH2 domain E139D 1.27 | [1] 0.799 | SHP2 N-SH2 domain L43F 1.12 | SHP2 N-SH2 domain T42A 1.07 | SHP2 N-SH2 domain T52S 0.707 | [2] 1.2

SWKRRYFLLRA [APBB1IP_Y331]
inactive: SHP2 C-SH2 domain E139D 0.201 | [1] 0.309 | SHP2 N-SH2 domain L43F 0.356 | SHP2 N-SH2 domain T42A 0.226 | SHP2 N-SH2 domain T52S 0.216 | [2] 0.246

SWKRRYFLLWA [APBB1IP_Y331_R335W]
inactive: SHP2 C-SH2 domain E139D 0.399 | [1] 0.422 | SHP2 N-SH2 domain L43F 0.311 | SHP2 N-SH2 domain T42A 0.382 | SHP2 N-SH2 domain T52S 0.415 | [2] 0.312

RASGIYFVPKG [APBB1IP_Y340_YF]
inactive: SHP2 C-SH2 domain E139D 1.39 | [1] 1.22 | SHP2 N-SH2 domain L43F 1.68 | SHP2 N-SH2 domain T42A 0.97 | SHP2 N-SH2 domain T52S 1.7 | [2] 1.25

DYSLKYATDIP [APC_Y1183]
inactive: SHP2 C-SH2 domain E139D 0.754 | [1] 0.799 | SHP2 N-SH2 domain L43F 0.786 | SHP2 N-SH2 domain T42A 0.686 | SHP2 N-SH2 domain T52S 0.797 | [2] 0.757

DFSLKYATDIP [APC_Y1183_YF]
inactive: SHP2 C-SH2 domain E139D 0.937 | [1] 0.7 | SHP2 N-SH2 domain L43F 0.914 | SHP2 N-SH2 domain T42A 0.946 | SHP2 N-SH2 domain T52S 1.04 | [2] 1.16

GLRQGYFVEAQ [APCS_Y142]
inactive: SHP2 C-SH2 domain E139D 0.764 | [1] 0.985 | SHP2 N-SH2 domain L43F 0.824 | SHP2 N-SH2 domain T42A 0.767 | SHP2 N-SH2 domain T52S 0.771 | [2] 0.851

GLRQSYFVEAQ [APCS_Y142_G141S]
inactive: SHP2 C-SH2 domain E139D 1.04 | [1] 0.572 | SHP2 N-SH2 domain L43F 0.858 | SHP2 N-SH2 domain T42A 0.717 | SHP2 N-SH2 domain T52S 0.868 | [2] 0.693

RRVEPYGENFN [APOA4_Y310]
inactive: SHP2 C-SH2 domain E139D 0.602 | [1] 0.627 | SHP2 N-SH2 domain L43F 0.502 | SHP2 N-SH2 domain T42A 0.56 | SHP2 N-SH2 domain T52S 0.509 | [2] 0.606

SYKNKYGMVAQ [APOB_Y276]
inactive: SHP2 C-SH2 domain E139D 0.444 | [1] 0.518 | SHP2 N-SH2 domain L43F 0.596 | SHP2 N-SH2 domain T42A 0.54 | SHP2 N-SH2 domain T52S 1.31 | [2] 0.487

SFNNKYGMVAQ [APOB_Y276_K273N_YF]
inactive: SHP2 C-SH2 domain E139D 0.715 | [1] 0.664 | SHP2 N-SH2 domain L43F 0.806 | SHP2 N-SH2 domain T42A 0.648 | SHP2 N-SH2 domain T52S 0.683 | [2] 0.683

VDHFGYTKDDK [APOB_Y740]
inactive: SHP2 C-SH2 domain E139D 0.762 | [1] 0.757 | SHP2 N-SH2 domain L43F 0.797 | SHP2 N-SH2 domain T42A 0.613 | SHP2 N-SH2 domain T52S 0.667 | [2] 0.895

ESLSSYWESAK [APOC2_Y47]
inactive: SHP2 C-SH2 domain E139D 1.05 | [1] 0.844 | SHP2 N-SH2 domain L43F 0.637 | SHP2 N-SH2 domain T42A 0.676 | SHP2 N-SH2 domain T52S 0.638 | [2] 1.08

ESLSSYRESAK [APOC2_Y47_W48R]
inactive: SHP2 C-SH2 domain E139D 0.641 | [1] 0.586 | SHP2 N-SH2 domain L43F 0.593 | SHP2 N-SH2 domain T42A 0.493 | SHP2 N-SH2 domain T52S 0.511 | [2] 0.687

KCLAVYQAGAR [APOE_Y180_R176C]
inactive: SHP2 C-SH2 domain E139D 0.919 | [1] 0.944 | SHP2 N-SH2 domain L43F 0.965 | SHP2 N-SH2 domain T42A 1.01 | SHP2 N-SH2 domain T52S 1.01 | [2] 1.09

LKKKQYTSIHH [APP_Y728]
inactive: SHP2 C-SH2 domain E139D 1.53 | [1] 1.53 | SHP2 N-SH2 domain L43F 1.57 | SHP2 N-SH2 domain T42A 1.61 | SHP2 N-SH2 domain T52S 1.53 | [2] 1.17

PKKKQYTSIHH [APP_Y728_L723P]
inactive: SHP2 C-SH2 domain E139D 1.76 | [1] 0.907 | SHP2 N-SH2 domain L43F 1.49 | SHP2 N-SH2 domain T42A 1.3 | SHP2 N-SH2 domain T52S 1.33 | [2] 0.73

GGRIDYIAGLD [APRT_Y60]
inactive: SHP2 C-SH2 domain E139D 0.72 | [1] 0.789 | SHP2 N-SH2 domain L43F 0.717 | SHP2 N-SH2 domain T42A 0.834 | SHP2 N-SH2 domain T52S 0.62 | [2] 0.721

GGRIDYIAGLV [APRT_Y60_D65V]
inactive: SHP2 C-SH2 domain E139D 0.973 | [1] 0.923 | SHP2 N-SH2 domain L43F 0.833 | SHP2 N-SH2 domain T42A 0.985 | SHP2 N-SH2 domain T52S 0.818 | [2] 1.02

VIKDKYPKVRY [APTX_Y209_A212V]
inactive: SHP2 C-SH2 domain E139D 1.43 | [1] 1.29 | SHP2 N-SH2 domain L43F 1.42 | SHP2 N-SH2 domain T42A 1.17 | SHP2 N-SH2 domain T52S 1.45 | [2] 1.38

VIKDKYPKAHF [APTX_Y209_R213H_YF]
inactive: SHP2 C-SH2 domain E139D 1.08 | [1] 1.06 | SHP2 N-SH2 domain L43F 1.2 | SHP2 N-SH2 domain T42A 1.27 | SHP2 N-SH2 domain T52S 1.04 | [2] 1.21

VIKDKYPKARF [APTX_Y209_YF]
inactive: SHP2 C-SH2 domain E139D 1.2 | [1] 1.13 | SHP2 N-SH2 domain L43F 1.26 | SHP2 N-SH2 domain T42A 1.03 | SHP2 N-SH2 domain T52S 1.29 | [2] 1.52

YPKARYHWLVL [APTX_Y214]
active: SHP2 C-SH2 domain E139D 3.48
inactive: [1] 3.1 | SHP2 N-SH2 domain L43F 3.01 | SHP2 N-SH2 domain T42A 2.78 | SHP2 N-SH2 domain T52S 3.02 | [2] 3.06

YPKVRYHWLVL [APTX_Y214_A212V]
inactive: SHP2 C-SH2 domain E139D 1.94 | [1] 2.32 | SHP2 N-SH2 domain L43F 2.16 | SHP2 N-SH2 domain T42A 1.79 | SHP2 N-SH2 domain T52S 2.02 | [2] 2.24

YPKAHYHWLVL [APTX_Y214_R213H]
active: SHP2 C-SH2 domain E139D 3.53
inactive: [1] 3.07 | SHP2 N-SH2 domain L43F 2.98 | SHP2 N-SH2 domain T42A 2.15 | SHP2 N-SH2 domain T52S 2.76 | [2] 2.98

FPKARYHWLVL [APTX_Y214_YF]
inactive: [1] 3 | SHP2 N-SH2 domain T42A 2.62 | [2] 2.58
active: SHP2 C-SH2 domain E139D 3.51 | SHP2 N-SH2 domain L43F 3.29 | SHP2 N-SH2 domain T52S 3.29

LASLIYNFILF [AQP6_Y231_V234I]
active: [1] 3.4 | [2] 3.87
inactive: SHP2 C-SH2 domain E139D 2.37 | SHP2 N-SH2 domain L43F 2.57 | SHP2 N-SH2 domain T42A 2.15 | SHP2 N-SH2 domain T52S 2.43

RGDCTYAPLLG [AR_Y269_M268T]
inactive: SHP2 C-SH2 domain E139D 0.817 | [1] 0.754 | SHP2 N-SH2 domain L43F 0.772 | SHP2 N-SH2 domain T42A 0.612 | SHP2 N-SH2 domain T52S 0.638 | [2] 0.979

VLPIDYYFPPQ [AR_Y552]
inactive: SHP2 C-SH2 domain E139D 1.34 | [1] 1.15 | SHP2 N-SH2 domain L43F 1.17 | SHP2 N-SH2 domain T42A 1.1 | SHP2 N-SH2 domain T52S 1.15 | [2] 1.23

VFPIDYYFPPQ [AR_Y552_L548F]
inactive: SHP2 C-SH2 domain E139D 1.24 | [1] 0.998 | SHP2 N-SH2 domain L43F 1.23 | SHP2 N-SH2 domain T42A 1.26 | SHP2 N-SH2 domain T52S 1.3 | [2] 1.02

VLSIDYFFPPQ [AR_Y552_P549S_YF]
inactive: SHP2 C-SH2 domain E139D 2 | [1] 1.65 | SHP2 N-SH2 domain L43F 1.93 | SHP2 N-SH2 domain T42A 2.12 | SHP2 N-SH2 domain T52S 2.17 | [2] 1.74

VLPIDYFFPPQ [AR_Y552_YF]
inactive: SHP2 C-SH2 domain E139D 1.28 | [1] 1.14 | SHP2 N-SH2 domain L43F 1.42 | SHP2 N-SH2 domain T42A 1.37 | SHP2 N-SH2 domain T52S 1.17 | [2] 1.05

From the supplement of paper PMC10369915
